Data reported in PubChem BioAssay AID624202 (National Center for Advancing Translational Sciences (NCATS), 2012).
Screen size: about 380,000 compounds; about 4,000 (1.1%) were called active. The shares of active, inactive and inconclusive entries below differ from those in the screen. Calls follow the shape of the dose curve; as a rule, active = well fitted activation curve with a large enough effect; inconclusive = small, poorly fitted or top-dose-only effect; inactive = no such curve, though single readings can be large or run the other way. A potency beside an inconclusive call is a rough fit, not a confirmed value.

Test: qHTS Assay to Identify Small Molecule Activators of BRCA1 Expression; also: nearly all actives have a fitted effect of over 80% in size
Details: MCF7-BRCA1-FFLuc reporter, luminescence, 48 h; series mostly up to 46.1 µM
In short: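 Reporter cells (MCF7, BRCA1 promoter-firefly luciferase) received library compounds across a concentration series for 48 h. End-point luminescence was measured and concentration-effect curves derived after normalization.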
Potency is read from the fitted curve at half-maximal effect; tags tell the direction and shape of the fitted curve.

Structure (SMILES)	Potency
CCS(=O)(=O)N1CCc2cc(C(=O)NCCc3ccccc3)ccc21	inconclusive: 35.5 µM [activator, single point]
CN(C(=O)COC(=O)c1cc(=O)[nH]c2ccccc12)c1ccccc1	inactive
CSCCNC(=O)c1ccc(C(C)(C)C)cc1	active: 7.08 µM
CC(C)(C)Cc1nnc(NC(=O)c2ccc3c(c2)OCO3)s1	inconclusive: 2.51 µM [activator, full curve, poor fit]
COc1ccc(C(=O)CSC(=S)N2CCCCC2)cc1	active: 3.16 µM
COc1ccc(-c2cc(C(=O)Nc3cccc(Cl)c3)no2)cc1	active: 3.16 µM
COc1cccc(NC(=O)Nc2cc(C)ccc2F)c1	inconclusive: 17.8 µM [activator, single point]
COc1ccc(C2=NN(S(C)(=O)=O)C(c3cccs3)C2)cc1 (configuration not stated)	inconclusive: 10 µM [activator, partial curve, poor fit]
Cc1ccc(OCCCn2c(CO)nc3ccccc32)cc1	inconclusive: 12.6 µM [activator, partial curve, poor fit]
Cn1ccnc1SCC(=O)Nc1ccc(SC(F)F)cc1	inconclusive: 10 µM [activator, partial curve, poor fit]
COc1ccc(N2CCN(C(=O)c3ccc(CS(=O)(=O)c4ccccc4C)o3)CC2)cc1	inactive
COc1ccc(N=[N+]([O-])c2ccc(OC)cc2)cc1	inconclusive: 0.631 µM [activator, full curve, poor fit]
C=CCNc1nc(C(=O)OCC(=O)c2ccccc2)cs1	inconclusive: 1.58 µM [activator, full curve, poor fit]
O=C1N=C(N2CCCCC2)SC1=C1CCCC1	inconclusive: 12.6 µM [activator, partial curve, poor fit]
CCCn1nnc(NC(=O)c2cc3ccccc3o2)n1	inconclusive: 7.08 µM [activator, partial curve, poor fit]
CC(C)COC(=O)c1ccc2c(c1O)C(=O)c1ccccc1C2=O	inconclusive: 2.82 µM [activator, full curve, poor fit]
Cc1ccc(C)c(Nc2nc(-c3cccnc3)cs2)c1	inconclusive: 10 µM [activator, partial curve, poor fit]
COc1ccc(NC(=O)CSc2nnc(-c3cccc(O)c3)o2)cc1	inconclusive: 31.6 µM [activator, single point]
Cn1c(N2CCCC2)nc2c1c(=O)n(Cc1ccc(Cl)cc1)c(=O)n2C	inactive
CCOc1ccc(-c2noc(CCCC(=O)NC3CCCCC3)n2)cc1OC	inactive
COc1ccc(C(C)(O)c2nc(-c3cccc(C(=O)O)c3)cs2)cc1 (configuration not stated)	inconclusive: 17.8 µM [activator, single point]
CCOc1ccc(S(=O)(=O)Nc2cccc(OC)c2)cc1	inactive
CC(=O)Nc1ncc(Cc2cccc(Cl)c2)s1	inactive
CC1CCN(C(=O)COC(=O)c2cc(=O)[nH]c3ccccc23)CC1	inconclusive: 11.2 µM [activator, partial curve, poor fit]

Structure (SMILES)	Potency
COc1ccc(Cl)cc1NC(=O)CCc1c(C)nc2c(c1C)c(=O)n(C)c(=O)n2C	inactive
COc1ccc2cc(-c3csc(-c4cccnc4)n3)ccc2c1	inconclusive: 2.51 µM [activator, partial curve, poor fit]
CCOC(=O)CSc1nc2ccc(C)cc2cc1C#N	active: 3.98 µM
CCOC(=O)c1nnc2cc(-c3ccccc3)nn2c1C	active: 6.31 µM
Cc1ccc(-n2c(SCC(=O)NCc3ccc(F)cc3)nc3c([nH]c4ccccc43)c2=O)cc1	inactive
Cc1ccc2nc(-c3ccc(N4C(=N)SC5CS(=O)(=O)CC54)cc3)sc2c1 (configuration not stated)	active: 8.91 µM
Nc1n[nH]c(N)c1N=Nc1ccc(Cl)cc1Cl	inconclusive: 12.6 µM [activator, partial curve, poor fit]
COc1ccc(CNC(=O)Cn2nnc3ccccc3c2=O)cc1	inconclusive: 11.2 µM [activator, partial curve, poor fit]
Cc1ccc(OC(=O)Nc2ccccc2)cc1	inconclusive: 35.5 µM [activator, single point]
CCN(CC)S(=O)(=O)c1cc(C(=O)NC2CCCCC2)ccc1C	inconclusive: 2.51 µM [activator, full curve, poor fit]
Cc1ccc2oc(C(=O)N3CCCCCC3)c(C)c2c1	active: 5.62 µM
Cc1ccc(-c2csc(N=C(N)N)n2)cc1	inconclusive: 15.8 µM [activator, partial curve, poor fit]
CCOC(=O)c1ccc(NC(=O)C2CC3CCC2C3)cc1 (configuration not stated)	inconclusive: 2.51 µM [activator, full curve, poor fit]
CN(C)c1ccc(/C=C2\C(Cl)=Cc3ccccc32)cc1	inactive
COc1nc(-c2ccccc2)ccc1-c1noc(C)n1	inconclusive: 8.91 µM [activator, partial curve, poor fit]
S=c1[nH]nc(CCc2ccccc2)n1Cc1ccccc1	inactive
O=[N+]([O-])c1ccc(-c2cnc3ccccc3n2)cc1	inconclusive: 14.1 µM [activator, partial curve, poor fit]
Cc1[nH]nc(SCC(=O)Nc2cccc(O)c2)c1[N+](=O)[O-]	inactive
O=C(Nc1ccc2c(c1)Cc1cc([N+](=O)[O-])ccc1-2)C(F)(F)F	active: 3.98 µM
COc1ccc(-n2ncc(N(C)n3cccc3)c(Cl)c2=O)cc1	inconclusive: 1.12 µM [activator, full curve, poor fit]
Cc1ccsc1/C=C1\SC(=S)N(CC2CCCO2)C1=O (configuration not stated)	inconclusive: 22.4 µM [activator, single point]
c1ccc(CSc2ccc(-c3cccs3)nn2)cc1	inconclusive: 2.24 µM [activator, full curve, poor fit]
Oc1c(C2=NCCNC(C(F)(F)F)=C2)ccc2ccccc12	inconclusive: 0.562 µM [activator, full curve, poor fit]
